This is an account of results in publication PMC4336329 (PLoS ONE, 2015).

The campaign covered roughly 310,000 compounds. About 14,000 (4.5%) showed an effect of 50% or more. The effect is printed as a negative number. Some of the results follow.
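Further: peak tail current of the secondary pulse compared with the same well before compound.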

human ether-à-go-go-related gene (hERG) potassium channel, sequence (Q12809 whole entry, looked up): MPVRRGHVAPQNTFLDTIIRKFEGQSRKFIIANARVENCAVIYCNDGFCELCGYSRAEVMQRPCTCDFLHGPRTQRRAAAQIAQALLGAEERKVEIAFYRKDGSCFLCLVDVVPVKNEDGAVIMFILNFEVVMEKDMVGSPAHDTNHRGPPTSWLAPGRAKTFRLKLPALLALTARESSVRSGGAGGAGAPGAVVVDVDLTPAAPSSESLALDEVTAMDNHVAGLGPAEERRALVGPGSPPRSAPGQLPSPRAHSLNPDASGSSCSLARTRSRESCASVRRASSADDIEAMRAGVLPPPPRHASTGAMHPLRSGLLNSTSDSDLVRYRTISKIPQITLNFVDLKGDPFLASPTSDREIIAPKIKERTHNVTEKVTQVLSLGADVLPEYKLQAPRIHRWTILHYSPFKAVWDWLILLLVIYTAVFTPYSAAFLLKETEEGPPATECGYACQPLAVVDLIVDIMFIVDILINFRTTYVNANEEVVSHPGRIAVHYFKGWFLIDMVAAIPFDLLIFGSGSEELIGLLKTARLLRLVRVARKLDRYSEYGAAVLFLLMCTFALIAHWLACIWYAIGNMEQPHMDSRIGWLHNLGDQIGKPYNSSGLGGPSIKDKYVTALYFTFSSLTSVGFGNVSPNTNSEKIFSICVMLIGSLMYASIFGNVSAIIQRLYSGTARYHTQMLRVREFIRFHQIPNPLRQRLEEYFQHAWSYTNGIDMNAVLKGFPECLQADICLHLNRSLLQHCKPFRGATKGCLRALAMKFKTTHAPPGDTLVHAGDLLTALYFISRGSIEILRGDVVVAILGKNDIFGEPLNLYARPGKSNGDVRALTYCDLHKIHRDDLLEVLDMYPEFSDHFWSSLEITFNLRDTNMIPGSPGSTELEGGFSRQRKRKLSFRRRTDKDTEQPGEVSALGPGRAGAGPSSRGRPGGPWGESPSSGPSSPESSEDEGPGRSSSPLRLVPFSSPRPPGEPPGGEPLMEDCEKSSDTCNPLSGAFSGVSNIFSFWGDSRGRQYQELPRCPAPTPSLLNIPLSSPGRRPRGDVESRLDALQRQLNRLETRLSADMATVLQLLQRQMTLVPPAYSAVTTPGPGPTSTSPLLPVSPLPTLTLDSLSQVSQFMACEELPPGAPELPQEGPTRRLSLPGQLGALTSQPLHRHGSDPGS

This assay addresses human ether-à-go-go-related gene (hERG) potassium channel (human, UniProt Q12809). The assay can be described thus: primary screen, population patch clamp on CHO cells stably expressing hERG.
With `COCCN(C(=O)CSc1cc(C)c2ccccc2n1)c1c(N)n(CC(C)C)c(=O)[nH]c1=O`, the “hERG current change (%, negative = inhibition) at 10uM” value came out at 0.153%.
Then `CCSc1ccccc1C(=O)N1CCN(c2ccccc2F)CC1`, with 17.6%; and `CCCCOC(=O)Nc1ccc(C(C)C)cc1`, with 5.49%; and `COC(=O)c1c(NC(=O)C2CC(=O)NN2Cc2ccccc2)sc(C)c1C` (stereo not drawn), with 6.43%.
On to `O=C(COc1ccccc1Cl)NCc1nc(-c2ccccc2)no1`, for which the “hERG current change (%, negative = inhibition) at 10uM” value is given as -0.239%.
With `CCCN(C1CCS(=O)(=O)C1)S(=O)(=O)c1ccc(F)cc1` (stereo not drawn) the figure was -3.44%; with `CSc1nsc(NC(=O)Cc2ccccc2)n1`, -8.68%; with `O=C(CN1CCN(S(=O)(=O)c2cccs2)CC1)NCC1CCCCC1`, -29.8%.
Turning to `COc1ccc(/C=N/N2C(=O)CSC2=S)cc1`, the “hERG current change (%, negative = inhibition) at 10uM” value is reported as 14.4%.
`COC(=O)CNC(c1ccccc1Cl)c1cc(Br)ccc1NC(=O)CCN1CCOCC1` (stereo not drawn): the “hERG current change (%, negative = inhibition) at 10uM” value is -32.5%.
For the compound `Cc1cc(C)n(-c2ccc(C(C)C)cc2)c(=O)c1C#N`, the “hERG current change (%, negative = inhibition) at 10uM” value was -25%.
Then `O=C(Nc1nc2ccc(F)cc2s1)C1CCCO1` (stereo not drawn), with -7.17%; and `CCOc1ccc2nc(/N=C/c3c(C)[nH]n(-c4ccc(C)cc4)c3=O)sc2c1`, with -1.61%.
Then `CCCCn1c(NCCN(C)C)nc2c1c(=O)[nH]c(=O)n2C`, with -10.7%; and `Brc1ccc(OCc2cn3ccccc3n2)cc1`, with -7.75%; and `CC1CCN(C(=O)CN(Cc2ccc(Cl)cc2)S(C)(=O)=O)CC1`, with 3.1%.
Then `CC(C)CCn1c(Br)nc2c1c(=O)n(CC(N)=O)c(=O)n2C`, with 9.25%; and `CC(=O)N/C(=N/c1nc(C)cc(C)n1)Nc1cc(C)cc(C)c1`, with -14.7%; and `CC(C)OC(=O)CSc1nc(Cc2cccs2)nc2ccccc12`, with -34.5%.
`Cc1nn(CC(=O)OC(C)C(=O)Nc2ccccc2[N+](=O)[O-])c(C)c1[N+](=O)[O-]` (stereo not drawn): the “hERG current change (%, negative = inhibition) at 10uM” value is on record as -27.6%.
For `Cc1cccc(NC(=S)N2CCC(c3nc4ccccc4s3)CC2)c1`, the “hERG current change (%, negative = inhibition) at 10uM” value is recorded as 3.18%.
With `Cn1nnc2ccccc2c1=O` the figure was 12.5%; with `Cc1cc(C)nc(SCc2ccc(C(=O)N/N=C3\CCCC(=O)C3)cc2)n1`, 41.3%; with `COC(=O)c1ccccc1CCC(C)=O`, 10%.
Then `Cc1sc2ncnc(SCC(=O)NC(C)C(C)C)c2c1C` (stereo not drawn), with 26.2%.
With `O=C(COC(=O)CCOc1ccccc1)Nc1cc(S(=O)(=O)N2CCCCC2)ccc1Cl`, the “hERG current change (%, negative = inhibition) at 10uM” value is -14.7%.
With `O=C1C(=O)N(CC(=O)N2CCCC2)c2ccccc21` the figure was 4.92%; with `Cc1cccc2c(SCC(N)=O)nc(-c3ccccc3)nc12`, 5.97%; with `Cc1ccc(S(=O)(=O)NCCC(=O)OCC(=O)Nc2ccccc2Cl)cc1`, -10.5%.
With `COc1ccc(-c2c(-c3ccccc3OC)oc3ccccc23)cc1F` the figure was 9.84%.
Then `CCOC(=O)c1[nH]c(C)c(C(=O)NCCCOC(C)C)c1C`, with 8.4%; and `CCc1ccc(-c2cc(C(F)(F)F)n3nc(C(=O)Nc4c(C)nn(Cc5ccccc5C)c4C)cc3n2)s1`, with -3.99%; and `O=C(CSc1nnc(C2CC2)n1Cc1ccccc1)Nc1cccnc1Cl`, with 5.07%.
In the case of `CCOc1ccc(CCNC(=O)CCc2nnc3ccc(N4CCCC4)nn23)cc1OCC`, the “hERG current change (%, negative = inhibition) at 10uM” value is given as -2.76%.
Then `O=C(NCC1CCCO1)c1cc2cc(Cl)ccc2[nH]1` (stereo not drawn), with 8.96%; and `CSc1ccc(CN(C)C(=O)C(c2ccccc2)c2ccccc2)cc1`, with 3.09%; and `CCN(CCn1cccn1)C(=O)c1cc(COc2ccccc2SC)on1`, with -16%.
With `Cc1oc(-c2ccccc2F)nc1CS(=O)(=O)CC(=O)NCCCN(C)C1CCCCC1` the figure was -6.81%; with `O=C(CN1CCCCCC1)NCC1CCCO1.O=C(O)C(=O)O` (stereo not drawn), 15.9%; with `Cc1nc(C)c(-c2csc(NCCc3ccccc3)n2)s1.O=C(O)C(=O)O`, 1.88%.
With `COc1ccc(OC)c(C(C)NC(=O)C(C)Cc2ccccc2)c1` (stereo not drawn) the figure was 15.3%; with `Cc1ccccc1NC(=O)C(=O)NCC1CCCN1S(=O)(=O)c1cccs1` (stereo not drawn), -10.7%; with `CCN(CC)C(=O)CSc1nnc(-c2ccc(O)cc2)n1CC1CCCO1` (stereo not drawn), 17.1%.
For the compound `O=C(CSc1nc2cccnc2n1Cc1ccccc1)NC1CCCCC1`, the “hERG current change (%, negative = inhibition) at 10uM” value is -43%.
With `Cc1cc(C)cc(S(=O)(=O)c2cnc3ccccc3n2)c1` the figure was 15.1%.
